The chains are these.
T1: RBFOX1 RRM (Homo sapiens, UniProt Q9NWB1 109-208)
T1 sequence: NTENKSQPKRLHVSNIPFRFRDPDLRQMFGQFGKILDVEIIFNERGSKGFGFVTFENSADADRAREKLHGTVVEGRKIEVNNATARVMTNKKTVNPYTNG

B1: ACGCUCG (DNA:RNA)
RNA: GGGAGACCGGAAUUCAGAUUGUCCACGCUCGUUAAAUCCCGUCGUAGCCACCA
DNA 1: CAATCTGAATTCCGGTCTCCC
DNA 2: TGGTGGCTACGACGGGATT
B2: GCUCGGG (DNA:RNA)
RNA: B1 RNA with A25G, G27U, U29G, C30G
DNA 1: CAATCTGAATTCCGGTCTCCC
DNA 2: TGGTGGCTACGACGGGATT
B3: GGCAGGC (DNA:RNA)
RNA: GGGAGACCGGAAUUCAGAUUGUCCGGCAGGCUUAAAUCCCGUCGUAGCCACCA
DNA 1: CAATCTGAATTCCGGTCTCCC
DNA 2: TGGTGGCTACGACGGGATT
B4: UAUGUAU (DNA:RNA)
RNA: B1 RNA with A25U, C26A, G27U, C28G, C30A, G31U
DNA 1: CAATCTGAATTCCGGTCTCCC
DNA 2: TGGTGGCTACGACGGGATT
B5: CCUCGAC (DNA:RNA)
RNA: B1 RNA with A25C, G27U, U29G, C30A, G31C
DNA 1: CAATCTGAATTCCGGTCTCCC
DNA 2: TGGTGGCTACGACGGGATT
B6: CGUUGCC (DNA:RNA)
RNA: B3 RNA with G25C, C27U, A28U, G30C
DNA 1: CAATCTGAATTCCGGTCTCCC
DNA 2: TGGTGGCTACGACGGGATT
B7: AUAACCG (DNA:RNA)
RNA: B1 RNA with C26U, G27A, C28A, U29C
DNA 1: CAATCTGAATTCCGGTCTCCC
DNA 2: TGGTGGCTACGACGGGATT
B8: AUUUAAU (DNA:RNA)
RNA: B1 RNA with C26U, G27U, C28U, U29A, C30A, G31U
DNA 1: CAATCTGAATTCCGGTCTCCC
DNA 2: TGGTGGCTACGACGGGATT
B9: CGGGGGG (DNA:RNA)
RNA: B3 RNA with G25C, C27G, A28G, C31G
DNA 1: CAATCTGAATTCCGGTCTCCC
DNA 2: TGGTGGCTACGACGGGATT
B10: CAUACCG (DNA:RNA)
RNA: B1 RNA with A25C, C26A, G27U, C28A, U29C
DNA 1: CAATCTGAATTCCGGTCTCCC
DNA 2: TGGTGGCTACGACGGGATT
B11: GUGCCCU (DNA:RNA)
RNA: B1 RNA with A25G, C26U, U29C, G31U
DNA 1: CAATCTGAATTCCGGTCTCCC
DNA 2: TGGTGGCTACGACGGGATT
B12: CAGGCCC (DNA:RNA)
RNA: B1 RNA with A25C, C26A, C28G, U29C, G31C
DNA 1: CAATCTGAATTCCGGTCTCCC
DNA 2: TGGTGGCTACGACGGGATT
B13: GCGGAAC (DNA:RNA)
RNA: B1 RNA with A25G, C28G, U29A, C30A, G31C
DNA 1: CAATCTGAATTCCGGTCTCCC
DNA 2: TGGTGGCTACGACGGGATT
B14: CAUCUAC (DNA:RNA)
RNA: B1 RNA with A25C, C26A, G27U, C30A, G31C
DNA 1: CAATCTGAATTCCGGTCTCCC
DNA 2: TGGTGGCTACGACGGGATT
B15: AACUUGA (DNA:RNA)
RNA: B1 RNA with C26A, G27C, C28U, C30G, G31A
DNA 1: CAATCTGAATTCCGGTCTCCC
DNA 2: TGGTGGCTACGACGGGATT
B16: AUGGUCU (DNA:RNA)
RNA: B1 RNA with C26U, C28G, G31U
DNA 1: CAATCTGAATTCCGGTCTCCC
DNA 2: TGGTGGCTACGACGGGATT
B17: UAGAGCG (DNA:RNA)
RNA: B1 RNA with A25U, C26A, C28A, U29G
DNA 1: CAATCTGAATTCCGGTCTCCC
DNA 2: TGGTGGCTACGACGGGATT
B18: CAACUAC (DNA:RNA)
RNA: B1 RNA with A25C, C26A, G27A, C30A, G31C
DNA 1: CAATCTGAATTCCGGTCTCCC
DNA 2: TGGTGGCTACGACGGGATT
B19: UUAGACG (DNA:RNA)
RNA: B1 RNA with A25U, C26U, G27A, C28G, U29A
DNA 1: CAATCTGAATTCCGGTCTCCC
DNA 2: TGGTGGCTACGACGGGATT
B20: UUCUAUG (DNA:RNA)
RNA: B1 RNA with A25U, C26U, G27C, C28U, U29A, C30U
DNA 1: CAATCTGAATTCCGGTCTCCC
DNA 2: TGGTGGCTACGACGGGATT
B21: GAUAUGC (DNA:RNA)
RNA: B3 RNA with G26A, C27U, G29U
DNA 1: CAATCTGAATTCCGGTCTCCC
DNA 2: TGGTGGCTACGACGGGATT
B22: UCUAGUG (DNA:RNA)
RNA: B1 RNA with A25U, G27U, C28A, U29G, C30U
DNA 1: CAATCTGAATTCCGGTCTCCC
DNA 2: TGGTGGCTACGACGGGATT
B23: UCCGGGU (DNA:RNA)
RNA: B3 RNA with G25U, G26C, A28G, C31U
DNA 1: CAATCTGAATTCCGGTCTCCC
DNA 2: TGGTGGCTACGACGGGATT
B24: UCCAAUU (DNA:RNA)
RNA: B3 RNA with G25U, G26C, G29A, G30U, C31U
DNA 1: CAATCTGAATTCCGGTCTCCC
DNA 2: TGGTGGCTACGACGGGATT
B25: UCCCCUU (DNA:RNA)
RNA: B1 RNA with A25U, G27C, U29C, C30U, G31U
DNA 1: CAATCTGAATTCCGGTCTCCC
DNA 2: TGGTGGCTACGACGGGATT
B26: GCGCCGU (DNA:RNA)
RNA: B1 RNA with A25G, U29C, C30G, G31U
DNA 1: CAATCTGAATTCCGGTCTCCC
DNA 2: TGGTGGCTACGACGGGATT
B27: GCCAAUG (DNA:RNA)
RNA: B3 RNA with G26C, G29A, G30U, C31G
DNA 1: CAATCTGAATTCCGGTCTCCC
DNA 2: TGGTGGCTACGACGGGATT
B28: AGUUAGC (DNA:RNA)
RNA: B3 RNA with G25A, C27U, A28U, G29A
DNA 1: CAATCTGAATTCCGGTCTCCC
DNA 2: TGGTGGCTACGACGGGATT
B29: CGUGCUA (DNA:RNA)
RNA: B3 RNA with G25C, C27U, A28G, G29C, G30U, C31A
DNA 1: CAATCTGAATTCCGGTCTCCC
DNA 2: TGGTGGCTACGACGGGATT
B30: AUAGUUA (DNA:RNA)
RNA: B1 RNA with C26U, G27A, C28G, C30U, G31A
DNA 1: CAATCTGAATTCCGGTCTCCC
DNA 2: TGGTGGCTACGACGGGATT
B31: GCGGUUG (DNA:RNA)
RNA: B1 RNA with A25G, C28G, C30U
DNA 1: CAATCTGAATTCCGGTCTCCC
DNA 2: TGGTGGCTACGACGGGATT

Substitutions are numbered along the chain they refer to; changes in the protein carry UniProt numbers. The list shows a part of the results.

For the assay, the target named is T1, RBFOX1 RRM. Description: EMSA; HiTS-Eq, 1 nM pool, 10 min; buffer printed only for the single-RNA assays: 10 mM Tris pH 7.5, 150 mM NaCl, 3.4 mM EDTA, 0.001% NP-40, 30 C. Particulars: tags: His6 N-terminal (pET28a); label: 5' 32P. Summed up: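 Purified wild-type or mutant RbFox RRM at increasing concentrations was equilibrated with 1 nM of 5′-radiolabelled RNA carrying 7 randomized nucleotides for 10 min in 50 µL. Unbound RNA was separated by 8% native PAGE and sequenced. Relative association constants came from read-count changes of each RNA species compared with the control reaction, normalised to the cognate motif.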
(In EMSA bound probe runs differently from free probe, usually more slowly.)
Turning to B1, the binding signal is 0.0146 KA relative to UGCAUGU. B2: the binding signal was 0.0176 KA relative to UGCAUGU. The value for B3 was 0.0103 KA relative to UGCAUGU. On to B4, for which the binding signal is 0.0166 KA relative to UGCAUGU. Consider B5, for which the binding signal was 0.00479 KA relative to UGCAUGU.

For the molecule B6, the binding signal was 0.014 KA relative to UGCAUGU. As for B7, the binding signal is 0.000312 KA relative to UGCAUGU. The value for B8 was 0.00361 KA relative to UGCAUGU; that for B9 was 0.0136 KA relative to UGCAUGU; that for B10 was 0.000194 KA relative to UGCAUGU. The value for B11 was 0.00968 KA relative to UGCAUGU. Regarding B12, the binding signal is 0.00671 KA relative to UGCAUGU. Consider B13, for which the binding signal was 0.0146 KA relative to UGCAUGU.

With B14, the binding signal is 0.00128 KA relative to UGCAUGU. With B15, the binding signal is 0.00741 KA relative to UGCAUGU. In the case of B16, the binding signal was 0.0168 KA relative to UGCAUGU.

For B17, the binding signal is 0.0165 KA relative to UGCAUGU. Consider B18, for which the binding signal is 0.000393 KA relative to UGCAUGU. B19: the binding signal is 0.00752 KA relative to UGCAUGU.

As to B20, the binding signal is 0.0108 KA relative to UGCAUGU.

For B21, the binding signal is 0.0126 KA relative to UGCAUGU.

With B22, the binding signal was 0.0133 KA relative to UGCAUGU. Take B23: the binding signal is 0.00411 KA relative to UGCAUGU. Consider B24, for which the binding signal was 0.0006 KA relative to UGCAUGU. For B25, the binding signal is 0.0019 KA relative to UGCAUGU. The value for B26 was 0.0132 KA relative to UGCAUGU; that for B27 was 0.0122 KA relative to UGCAUGU. As to B28, the binding signal is 0.0092 KA relative to UGCAUGU.

With B29, the binding signal was 0.0127 KA relative to UGCAUGU. As for B30, the figure is 0.00305 KA relative to UGCAUGU. With B31, the binding signal is 0.0329 KA relative to UGCAUGU.

For the origin of these results see PMC9911399, “Two distinct binding modes provide the RNA-binding protein RbFox with extraordinary sequence specificity”.
